Some of the results follow.

This assay has as its target T1, OsWOX13 (Oryza sativa, UniProt Q5QMM3 1-267).
T1 sequence: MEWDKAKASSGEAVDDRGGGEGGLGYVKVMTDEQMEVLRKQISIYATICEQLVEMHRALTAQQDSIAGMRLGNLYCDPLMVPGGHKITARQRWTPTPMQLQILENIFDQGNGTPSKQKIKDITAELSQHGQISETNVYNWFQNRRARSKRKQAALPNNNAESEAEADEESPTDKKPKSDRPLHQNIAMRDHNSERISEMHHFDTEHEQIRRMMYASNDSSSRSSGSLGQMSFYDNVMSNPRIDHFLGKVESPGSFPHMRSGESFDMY
The assay can be described thus: protein-binding microarray (RPBM); PBS, 2% BSA, 51.3 ng/ul salmon testes DNA, 50 uM zinc acetate, 200 nM TF, 25 C, 1 h; high values mean tight binding. Conditions: protein: recombinant; tags: N-terminal polyhistidine and DsRed monomer fusion (pET32a); label: CyDye5-dUTP incorporated in the synthesized complementary strand; 3' TTTTT single-stranded linker to array surface; dsDNA, one strand shown. An outline of the steps: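 The binding signal is fluorescence intensity per array feature (arbitrary units). Readings came from an Axon 4000B scanner after a washed, 2% BSA-blocked, double-stranded custom Agilent array had been incubated for 1 h at 25 °C with 200 nM protein and 50 µM zinc acetate. The protein was a Ni–NTA-purified transcription factor fused N-terminally to polyhistidine and DsRed, expressed in E. coli BL21-CodonPlus.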
As to “CCTCCCATTAACTATTAACTCTTTTCGTAACCCTTTCAGCCGGAGTCACCTAGTGCAG”, the binding signal is 3150 fluorescence intensity (a.u.).

In the case of “TTAAATTTTGAACTTTGATCAGACATATTACAAGAGGTGGCGGAGTCACCTAGTGCAG”, the binding signal was 10200 fluorescence intensity (a.u.).

Consider “ACCTAAATTAGTAGAACGAATCTTTCCTTTTCTCTCTTTTCGGAGTCACCTAGTGCAG”, for which the binding signal is 15700 fluorescence intensity (a.u.).

Take “TCTTGTTTTCAATTTGATTGCATTTGAATGGCTTCAATGGCGGAGTCACCTAGTGCAG”: the binding signal was 11500 fluorescence intensity (a.u.).

Turning to “GTAACAGACTTGATTAATGTGTACAATATTAAACAGATTGCGGAGTCACCTAGTGCAG”, the binding signal is 29600 fluorescence intensity (a.u.).

For the sequence “CCCACCGTTTATTAATTAGAAAATGTATTAATAAATGGCCCGGAGTCACCTAGTGCAG”, the binding signal is 14600 fluorescence intensity (a.u.).

With “TTTGATTTTAGGTCAATGCTCGAAGCAATTTCTCCTCCTCCGGAGTCACCTAGTGCAG”, the binding signal is 13300 fluorescence intensity (a.u.).

For the sequence “AATTGATGTGGTCAATCCAGGCTTCCAGCCGATTGGTGGACGGAGTCACCTAGTGCAG”, the binding signal is 4010 fluorescence intensity (a.u.).

Consider “CCAAAATTGTACTGGGAACATGATTATTATAGCAGGCTCTCGGAGTCACCTAGTGCAG”, for which the binding signal was 7300 fluorescence intensity (a.u.).

For the sequence “CCTAATTATATGGACCTGATCCACACCGTACAAGCATATTCGGAGTCACCTAGTGCAG”, the binding signal is 23400 fluorescence intensity (a.u.).

As for “GGATGATGATTTGGGCTGAACGCTACATGTCCAAAGAAGCCGGAGTCACCTAGTGCAG”, the binding signal is 12100 fluorescence intensity (a.u.).

As to “CGTGGACATCACAATTATTGAATTTGGAGAACAAATTGGTCGGAGTCACCTAGTGCAG”, the binding signal is 8910 fluorescence intensity (a.u.).

Turning to “GATAATTTGCCATTCTTTAGGGCCCGGTTCTTTTCTCCTTCGGAGTCACCTAGTGCAG”, the binding signal was 14800 fluorescence intensity (a.u.).

On to “ATGGTTTATTGATAATTATGTGAAGTTTAGTTCTAGCCGACGGAGTCACCTAGTGCAG”, for which the binding signal is 13500 fluorescence intensity (a.u.).

Consider “AAATAAATAATCAACTGGACTGCCGCTTATTACGGACCATCGGAGTCACCTAGTGCAG”, for which the binding signal was 4150 fluorescence intensity (a.u.).

As to “CGGATCCCATTCAATCATTCATTCATGTCGGATTGATGCCCGGAGTCACCTAGTGCAG”, the binding signal was 11800 fluorescence intensity (a.u.).

In the case of “TTAAACCATTGTAATTTAATATATAAACTTCAAATCTATCCGGAGTCACCTAGTGCAG”, the binding signal is 3550 fluorescence intensity (a.u.).

With “CTTAATTTGCAGCGCTAATAAGCTCTAGCTTTCTCTTCTTCGGAGTCACCTAGTGCAG”, the binding signal was 14300 fluorescence intensity (a.u.).

As for “CAATCACTAATCACCTCACTTAAATTATGCTTAGCCGTTTCGGAGTCACCTAGTGCAG”, the binding signal was 18400 fluorescence intensity (a.u.).

As to “ATTAGTTCTATCAAATCAATAATTGAATATATTATCATAACGGAGTCACCTAGTGCAG”, the binding signal is 21300 fluorescence intensity (a.u.).

Consider “GGGAGACGAGGTGTTAATTACTGCTCCTCTGTTTCAAATCCGGAGTCACCTAGTGCAG”, for which the binding signal was 10500 fluorescence intensity (a.u.).

With “TTAACATCAAAATTGAAAGTTTGGTTAAAATTAGAACGATCGGAGTCACCTAGTGCAG”, the binding signal was 3820 fluorescence intensity (a.u.).

For “TTTACTCCCGGTTTCTTAATTGTTTCTTAACCGCAGGAACCGGAGTCACCTAGTGCAG”, the binding signal is 3790 fluorescence intensity (a.u.).

In the case of “AATGGAATATACTAATTAAATTGCATGGTTAGGGGTTAGGCGGAGTCACCTAGTGCAG”, the binding signal was 8100 fluorescence intensity (a.u.).

For the sequence “TTTCAAAGTTAACTAAGCAAATTAAAATTTTGGAAGTTTCCGGAGTCACCTAGTGCAG”, the binding signal was 6630 fluorescence intensity (a.u.).

For “TTAGATGTTAATAAATTTAGACACATATATATGTTTAGATCGGAGTCACCTAGTGCAG”, the binding signal was 8540 fluorescence intensity (a.u.).

On to “TAGATACGAAAATTAATTGGAATTTTGGATTTGGATGGGACGGAGTCACCTAGTGCAG”, for which the binding signal was 24500 fluorescence intensity (a.u.).

As to “ATAACAGTGATTGATCTGTTAAATATCCGATACGGGTAGGCGGAGTCACCTAGTGCAG”, the binding signal is 65200 fluorescence intensity (a.u.).

In the case of “TTGATTATTGTATTTACTGGCTACAATGTTACCTATAGCTCGGAGTCACCTAGTGCAG”, the binding signal was 22500 fluorescence intensity (a.u.).

“TACTTATAAAACTAATTACATAAATGAGATCTAATTCGCGCGGAGTCACCTAGTGCAG”: the binding signal was 4070 fluorescence intensity (a.u.).

“CTGATTTGCAGTTCGTTCGTGCCTCTCACAATCAAACCCCCGGAGTCACCTAGTGCAG”: the binding signal was 14300 fluorescence intensity (a.u.).

As for “GGTTAATTGTACCTGGTCGCCTGATCGCGTCACTTTACGCCGGAGTCACCTAGTGCAG”, the binding signal was 44200 fluorescence intensity (a.u.).

Consider “CTAGGCCTCAATGATGAGAATAATTTGATCACGCACATCACGGAGTCACCTAGTGCAG”, for which the binding signal was 3300 fluorescence intensity (a.u.).

In the case of “CAATCCGTGATTAGAAACGAGATCATATAGCTATATGGATCGGAGTCACCTAGTGCAG”, the binding signal is 29000 fluorescence intensity (a.u.).

Consider “CATCACCAACCAATCAACGAACAGAGCTGGCGCCGTGCTCCGGAGTCACCTAGTGCAG”, for which the binding signal is 10100 fluorescence intensity (a.u.).

Regarding “GAACCTTTTGATTGATTCTCGTCCTACACGCTTGAAGGCGCGGAGTCACCTAGTGCAG”, the binding signal was 38200 fluorescence intensity (a.u.).

With “ACAAATCAATCAATTATAAAGTTTTAAAATTTAATTTTAACGGAGTCACCTAGTGCAG”, the binding signal was 26900 fluorescence intensity (a.u.).

Turning to “AGGGCCCTGATGATTAGCAACAAAAGCGGGTGCCTGCCGTCGGAGTCACCTAGTGCAG”, the binding signal was 6840 fluorescence intensity (a.u.).

Regarding “CTTGATTCCTCTGTCTATTTAACGATTTGGACGAGGAAGCCGGAGTCACCTAGTGCAG”, the binding signal was 25900 fluorescence intensity (a.u.).

As to “AATTACATTGACATGTCAATTTACTACATTTCTCTCTTCTCGGAGTCACCTAGTGCAG”, the binding signal is 18300 fluorescence intensity (a.u.).

“TAAATTATAAATTATAGATAATATAGCATGTTTGCATGATCGGAGTCACCTAGTGCAG”: the binding signal was 24100 fluorescence intensity (a.u.).

On to “TGTGATGCTAATTTTATATTTATTAGGACCATAGAATGCACGGAGTCACCTAGTGCAG”, for which the binding signal is 9890 fluorescence intensity (a.u.).
